The record followed here is ChEMBL document CHEMBL4888484, “Replenishing the malaria drug discovery pipeline: Screening and hit evaluation of the MMV Hit Generation Library 1 (HGL1) against asexual blood stage Plasmodium falciparum ,using a nano luciferase reporter read-out” (2022).

The campaign covered roughly 150,000 compounds. About 540 (0.36%) showed an effect of 50% or more. The list shows a part of the results.

In this assay the test system is Plasmodium falciparum. Briefly: Primary screen in NF54 nanoGlo assay, in single point, at 2uM, 72h; a lower Z score goes with more inhibition. It is filed as functional, Erythrocyte. Conditions: timepoint 72 hour.
`O=C(COc1ccccc1)N1CCCC[C@@H]1CCN1CCCCC1`: the % Inhibition (commonly the drop in the measured response relative to a control, in per cent) is reported as -13% and the Z score stood at 1.46.
In the same order, the values of `CCN(CC)C(=O)C[C@]1(c2ccccc2)CC(=O)N(CC2CCCCC2)C1=O` are -19% and 2.45.
For `c1ccc(CNc2ncc(CN3CCCn4cncc4C3)cn2)cc1`, the “% Inhibition” value is recorded as 7% and the Z score was -1.17.
Consider `CCn1ncn2cc(S(=O)(=O)N3CCN(c4cc(C)ccc4C)CC3)cc2c1=O`, for which the “% Inhibition” value is reported as 20% and the Z score is -2.82.
On to `CN1CCN(c2cc3c(nn2)Oc2cc(N)ccc2N3C)CC1`, for which the “% Inhibition” value was 30% and the Z score is -3.37.
`O=C1CN(Cc2ccccc2)[C@@H](c2ccc(C(=O)O)cc2)N1`: the “% Inhibition” value is listed as -7% and the Z score is on record as 1.33.
The matching figures for `CCCCN1CCN(C(=O)c2cc(C(C)C)nn2C)CC1=O`: -14% and 2.03.
In the case of `CC(=O)N[C@H]1C[C@H](c2cc(N3CCN(c4ccccn4)CC3)ncn2)C1`, the “% Inhibition” value is reported as -11% and the Z score is given as 1.65.
The matching figures for `O=c1ccc(F)cn1Cc1ncc(Cl)cc1Cl`: 2% and -0.28.
Regarding `O=C(Nc1ccc(Cl)cc1F)[C@@H]1Oc2ccccc2NC1=O`, the “% Inhibition” value is given as -7% and the Z score was 0.82.
`CCc1ccc(NC(=O)CS(=O)(=O)c2ccc3c(c2)S(=O)(=O)N=C(C)N3)cc1`: the “% Inhibition” value is given as -10% and the Z score was found to be 1.52.
In the case of `Cn1cc(S(=O)(=O)NC[C@H]2CCCN2c2ncccn2)cn1`, the “% Inhibition” value was -12% and the Z score amounted to 1.72.
Consider `O=C(N[C@H]1CS(=O)(=O)c2ccccc21)c1cc2c(s1)CCC2`, for which the “% Inhibition” value was -5% and the Z score was determined as 0.53.
The matching figures for `FC1(F)[C@@H](CN2CCn3ccnc32)[C@@H]1c1ccccc1`: -8% and 1.43.
`Cc1nc(NCc2cccnc2-n2cnc3ccccc32)cc(C(C)C)n1`: the “% Inhibition” value is listed as 5% and the Z score is -0.62.
As to `Cn1c(C#N)ccc1C(=O)NC12CCC(C(F)(F)F)(CC1)CC2`, the “% Inhibition” value was -13% and the Z score came out at 2.23.
Consider `O=C(O)C[C@@H]1CCN(C(=O)COc2ccccc2)C[C@@H]1CCN1CCN(c2ccccc2)CC1`, for which the “% Inhibition” value amounted to 11% and the Z score was -1.24.
On to `COc1cn(C)nc1[C@H](C)Nc1cc(C#N)ncn1`, for which the “% Inhibition” value is on record as 7% and the Z score is reported as -1.31.
Take `Cc1n[nH]cc1CNC[C@H]1CCCn2ccnc21`: the “% Inhibition” value is -5% and the Z score is 0.53.
On to `COc1cc([C@H]2C[C@@H]2c2ccccc2)cc(S(N)(=O)=O)c1`, for which the “% Inhibition” value is recorded as -7% and the Z score turned out to be 0.91.
In the same order, the values of `CC[C@](C)(NCC(=O)Nc1cccc(C(C)=O)c1)c1nccs1` are 5% and -0.8.
Turning to `O=C(NCCc1cccs1)c1nc(-c2cnccn2)no1`, the “% Inhibition” value is -17% and the Z score is 2.55.
In the case of `COc1ccc(CN2CC[C@@H]3C(=O)NCCCCCCN(Cc4ccncc4)[C@@H]3C2)cc1Cn1ccnc1`, the “% Inhibition” value turned out to be 59% and the Z score is recorded as -7.78.
`CN=C(NCc1ccccc1F)NC(C)(C)C`: the “% Inhibition” value is on record as -8% and the Z score is on record as 1.23.
Consider `Cc1cc(C)nc(N(C(=O)CCCOc2ccc(Cl)cc2Cl)C(=O)CCCOc2ccc(Cl)cc2Cl)n1`, for which the “% Inhibition” value worked out at 3% and the Z score is given as -0.36.
For the compound `Cc1cc(CCC(=O)Nc2nc(=O)cn[nH]2)ccc1Br`, the “% Inhibition” value came out at 2% and the Z score is -0.25.
In the same order, the values of `CC1CCN(CC(=O)Nc2ccn(-c3ccncc3)n2)CC1` are 1% and -0.23.
For the compound `Cc1ccc(S(=O)(=O)CC#N)c(C)c1`, the “% Inhibition” value is -8% and the Z score was determined as 1.46.
For `Cc1ccc(CNC(=O)c2cn(C3CCCCC3)c(=O)c3nnsc23)cc1`, the “% Inhibition” value is given as -16% and the Z score turned out to be 2.38.
Regarding `COc1cc(C(=O)NC[C@H]2CCN(c3ccccc3F)C2)ncn1`, the “% Inhibition” value is recorded as -10% and the Z score came to 1.04.
The matching figures for `O=C(C1CCOC1)N1CCC(c2cccs2)C1` (centres undefined): -7% and 1.24.
As to `Cc1cc(C)n(CCC(=O)N2C[C@H]3COCC[C@@]3(O)[C@@H]3COCC[C@@H]32)n1`, the “% Inhibition” value is -13% and the Z score came out at 2.18.
Consider `O=C(c1cccc(Cl)c1)N(Cc1ccccc1Cl)[C@H]1CCS(=O)(=O)C1`, for which the “% Inhibition” value is given as -15% and the Z score stood at 1.33.
In the same order, the values of `CC(=O)N[C@H]1C[C@@H](c2cc(C)cc(F)c2)O[C@@H](C2CCCCC2)C1` are -15% and 2.04.
For `Cn1ncc2cc(C(=O)Nc3cccc(Cn4nc5ccccn5c4=O)c3)cnc21`, the “% Inhibition” value was -11% and the Z score is on record as 1.11.
As for `O=C(O)Cn1nccc1[C@H]1CCCN(Cc2ccc3[nH]ccc3c2)C1`, the “% Inhibition” value is -2% and the Z score amounted to 0.43.
In the case of `O=C(Cn1cc(-c2ccccc2)c2ncn(C3CC3)c(=O)c21)Nc1ccc(F)c(Cl)c1`, the “% Inhibition” value is -8% and the Z score is listed as 1.16.
Turning to `O=C(Nc1cccc2[nH]ncc12)c1ccco1`, the “% Inhibition” value was determined as 35% and the Z score is -0.8.
In the same order, the values of `CCN(C(=O)CCCn1cncn1)c1cc(C)cc(C)c1` are -4% and 0.53.
As to `Cc1ncsc1CCN(C)C[C@H](C)N1CCOCC1`, the “% Inhibition” value is on record as -11% and the Z score was 2.13.
Regarding `CN(C)c1ccnc(CNC(=O)Nc2ncc(C(F)(F)F)s2)c1`, the “% Inhibition” value came out at 2% and the Z score was -0.3.
In the same order, the values of `C=CCN1CC(C(=O)NCCc2ccc(OC)cc2)CCC1c1ccccc1` (centres undefined) are 5% and -0.78.
